Drawing on PubChem BioAssay (NCI), this text covers GI50 and TGI for two compounds.

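Briefly, cells in 96-well plates were exposed to five compound concentrations for 48 h, and endpoints were estimated by linear interpolation. GI50 = concentration required for 50% inhibition of growth. TGI: total growth inhibition.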

The assay has as its system NCI-H322M lung. The assay is described as follows: DTP human tumour cell line panel, 48 h.

In the case of `O=S(=O)(NCCCNc1nccc(-c2[nH]c(-c3ccccc3)nc2-c2ccc(F)c(O)c2)n1)c1ccc(C(F)(F)F)cc1`, the GI50 was 3.09 µM and the TGI came out at 10.4 µM.

Consider `C[C@@H](Nc1c(C#N)cnc2ccc(-c3cnc(N)nc3)cc12)c1ccccc1`, for which the GI50 was 1.03 µM and the TGI is 11.1 µM.

Broadly, the GI50 is the concentration giving 50% growth inhibition. Usually TGI stands for the concentration giving total growth inhibition. Lower therefore signals greater sensitivity of the cells.
